Experimental data from the supplement of paper PMC3334620.
Over roughly 33,000 sequences, “E-score (-0.5 to 0.5)” has its median near -0.01; the highest 2% begin near 0.26. This is one part of the list.

molecular target: Ste12 (UniProt P13574); assay: PBM E-score (8-mer binding enrichment) (E-score (-0.5 to 0.5)); higher = stronger / more preferred TF binding; most listed sequences are background and not binding sites; details: protein concentration: 200 nM; construct: GST-DNA-binding domain
Outline: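 Universal all-10-mer Agilent arrays, double-stranded by primer extension on fresh or once-stripped slides, were probed with about 100-200 nM GST-tagged yeast transcription factors made by PURExpress. Fluorescent anti-GST detected bound protein, and masliner normalised the scans. E-scores from the Universal PBM Analysis Suite were given to each ungapped eight-base word pooled with its reverse complement.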

Point of comparison: ATCCGGTG, “PBM E-score” value 0.0204. Against it:
- GTAATACA — lower, 0.0171
- ATATTGAC — higher, 0.0234
- AAGCCCCT — lower, -0.169
- TCACTTAA — higher, 0.191
- GGAATACC — lower, -0.109
- AGAAAACC — higher, 0.199
- GCTATTAA — higher, 0.148
- CCCGGTCA — lower, -0.0347
- GCACATGA — lower, -0.101
- GTTGTCAA — lower, 0.0137
- CTATAGCC — lower, -0.344
- CGGTGCAC — lower, 0.0133
- ACTATTCA — higher, 0.0608
- CCGTATAC — lower, -0.0202
- CCGAGACA — lower, -0.0765
- CATGGCCC — higher, 0.0579
- AAGCGCTT — higher, 0.0528
- TCCGTTAA — lower, 0.00055
- CTTATGTC — lower, -0.103
- CGGTTCCC — lower, -0.101
- CTCCAGAC — lower, -0.0241
- GGGACAAA — higher, 0.113
- TAGGTTAA — higher, 0.0556
- CAACCGCC — lower, -0.00632
- AGCGGATG — lower, 0.0168
- ATACACGG — lower, 0.00387
- GACTTTCA — higher, 0.0403
- GACAACCC — higher, 0.118
- AAATGATA — higher, 0.292
- ATGTAAAT — higher, 0.113
- TGATAGCA — higher, 0.118
- CTGTCCGC — lower, -0.0238
- CTAATTAG — lower, -0.00317
- AGGGGCCC — lower, -0.147
- GCACAAGC — lower, -0.104
- CACGATCC — higher, 0.0258
- ATTCAGAA — higher, 0.235
- AGAGCTAC — lower, -0.201
- CGGCACTC — lower, -0.211
- CCGAAGGA — lower, -0.121
- ACAAAATC — higher, 0.291
- ACTTGATG — lower, 0.00022
- CGAGTAGA — lower, -0.0637
- TAAAGGCA — higher, 0.0797
- ACAAAAGT — lower, -0.005
- AAGGGACG — lower, -0.065
- GGGAATCA — lower, -0.141
- CAAAGCCG — lower, -0.00016
- GTGGCCAA — higher, 0.0326
- GGCCTTTA — lower, -0.0491
- GAAGTAGC — lower, -0.063
- AACCACAT — higher, 0.114
- GATGGGGA — lower, -0.114
- CGCTAGGA — lower, -0.176
- ACCTGCGT — lower, -0.0683
- CGCATACG — lower, -0.0951
- CCTTAAGG — lower, -0.196
- GGGTTGAA — higher, 0.145
- ATCAGTCC — lower, -0.325
- CAAAGTCC — lower, -0.143
- TATGTGAA — higher, 0.0278
- GCCTAACC — lower, -0.105
- AGATCAAG — higher, 0.046
- AAGGTTCG — lower, -0.185
- GTTGGCAA — higher, 0.0378
- TAGAGTAA — lower, -0.0164
- CCAGGTAA — lower, -0.0812
- AACTAATA — higher, 0.231
- CCGTGTCC — lower, -0.0529
- ACGTATCA — higher, 0.14
- CCAGGTAC — lower, -0.114
- AACCTGCC — lower, -0.125
- CGGAGAAA — higher, 0.18
- CAGCAGAC — lower, -0.134
- CAGCGCCG — lower, -0.054
- CCCCTTCG — lower, -0.193
- GCACATAA — higher, 0.0869
- AACTATAA — higher, 0.188
- TAAGCCTA — lower, -0.0855
- CTTCTAAC — lower, -0.0172
- CAGCTCCG — higher, 0.0325
- CTCTAACC — higher, 0.0529
- GACATGAA — higher, 0.0824
- CGCTTTCA — higher, 0.0838
- CGCGCACG — lower, -0.00644
- CTACAAGA — lower, -0.00425
- CGTCTGTC — lower, -0.0024
- AATACTCG — higher, 0.0328
- ACTACAAG — lower, -0.0663
- ACTTCGCG — higher, 0.0548
- CGACGCAC — lower, -0.0687
- GATGGACC — lower, 0.0165
- AGCCTATG — lower, -0.109
- GTTCTCAA — higher, 0.125
- ACTTGGCA — lower, -0.163
- CGTAGCAG — lower, -0.125
- GGACTTCA — lower, -0.137
- CTGCCTAA — lower, -0.074
- GGAACAGA — higher, 0.0917
- ATTTATGG — higher, 0.233
- GCCACCAC — lower, -0.172
- CTCAACCC — lower, -0.0989
- CACTTGCC — lower, -0.189
- CATGACCC — lower, -0.14
- CTCAGGTC — lower, -0.0882
- CGTTTTCC — lower, -0.0434
- CCGCAGAA — higher, 0.0414
- ATGACCCG — lower, -0.156
- GCATACGA — lower, -0.105
- AAGCGTGC — lower, -0.2
- TCTTTGCA — higher, 0.0593
- CATGTAGC — lower, -0.019
- AGTCGACA — higher, 0.0271
- CTTAACTC — higher, 0.0673
- TATGGCCA — lower, -0.0534
- AATTGTCG — higher, 0.0625
- CCTCGAAA — higher, 0.176
- AAGGAGTA — lower, -0.0852
- CGACGTGC — lower, -0.126
- ATCGTCTA — lower, -0.0181
- CGAACTTA — lower, -0.0357
- ACCAGCAC — lower, -0.0823
- CCAAGCCG — lower, -0.119
- AGCCCGAG — lower, -0.12
- AGAGCTCT — lower, -0.184
- CGGCCAGC — lower, -0.154
- GGCGATGA — lower, -0.0312
- GGTTCACA — lower, -0.0161
- GAGTGCCC — lower, -0.0794
- ACTTCCCT — lower, -0.0919
- CAGGCGTA — lower, -0.0983
- TAAGTTGA — higher, 0.127
- CCCAGAGC — lower, -0.272
- GGCATACA — lower, -0.119
- ACAGTCAC — lower, -0.143
- CACCCACC — higher, 0.242
- CCCCAGAA — higher, 0.0424
- TAAGCGCA — lower, -0.116
- ACCAATGG — lower, -0.133
- AAGGTATA — higher, 0.0928
- ATCCGCGA — higher, 0.123
- AACGCATG — higher, 0.0525
- ATACATCG — higher, 0.0903
- AGATTTGC — higher, 0.0417
- ATCCATTA — lower, -0.0147
- CGCATCCG — lower, -0.212
- ACGGGGCG — higher, 0.159
- CATGGCGC — lower, -0.223
- CACGACGC — lower, -0.0651
- CGCCCGCC — higher, 0.154
- ACGACTAG — lower, -0.0953
- AAACTCCA — higher, 0.0535
- ATACAATC — higher, 0.0838
- ACTCCTCA — lower, -0.194
- AGGTCGTA — lower, -0.115
- AGTACAGC — lower, -0.26
- AAAACCGC — higher, 0.0403
- AGTGCAGA — lower, 0.0178
- AACAAGTT — higher, 0.154
- TCTATCAA — higher, 0.0277
- GCTATGCC — lower, -0.196
- CCCTGCTA — lower, -0.225
- AATAAAGT — higher, 0.207
- AGAGAATG — higher, 0.0223
- CTCACACC — lower, -0.106
- AGTCATGG — lower, -0.142
- ACTACCAG — higher, 0.0509
- CGTGTGGC — lower, -0.158
- CGCCTATC — lower, -0.0614
- GCTCTTGA — lower, -0.0672
- CATTGGTA — lower, -0.0979
